Experimental data taken from publication PMC6212790.
Some of the results follow. At the low end of the ranking the order means little.

target: T1, GST-Rok (full length) (UniProt O34857); test: protein binding microarray; details: Rok is a gene silencer of Bacillus subtilis; high values mean tight binding; most listed sequences are background and not binding sites; double strand, one strand shown;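 note: rank score from −0.5 (least bound) to 0.5 (best bound)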
T1 sequence: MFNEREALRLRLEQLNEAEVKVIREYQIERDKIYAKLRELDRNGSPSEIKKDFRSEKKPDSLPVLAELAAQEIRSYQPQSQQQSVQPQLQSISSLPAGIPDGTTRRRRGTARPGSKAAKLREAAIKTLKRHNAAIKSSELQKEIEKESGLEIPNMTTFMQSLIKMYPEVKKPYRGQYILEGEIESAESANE

Row | Sequence | binding signal [E-score]
1 | CTTATGCC | -0.123
2 | TGCTCCCA | -0.121
3 | AACGGACC | -0.202
4 | AGAAACCG | 0.0282
5 | CATCAGAA | -0.0234
6 | AACAAAGC | 0.0723
7 | TAGTGACA | 0.152
8 | GTGTTAGA | 0.122
9 | AAACCAGT | -0.095
10 | CTCGACAC | -0.0782
11 | ACAGGTAG | 0.0614
12 | CAGTGAGA | -0.0231
13 | ACTTGGAA | 0.18
14 | AGTGCTAA | 0.159
15 | AGTAACTA | 0.421
16 | ATGAGCTA | 0.199
17 | GCTGAAAC | -0.111
18 | AGTCATTG | -0.00897
19 | ACCGCATC | -0.0255
20 | CAGCTGAG | -0.123
21 | AGTAGAGA | 0.265
22 | TGGGCAAA | -0.0755

Row | Sequence | binding signal [E-score]
23 | CGTTTAGC | 0.0496
24 | ATTGACAC | 0.00272
25 | CGGAGCAC | -0.28
26 | AATTTATG | 0.283
27 | ACCATCCA | 0.106
28 | GGCAATAC | -0.0437
29 | TCTGCACA | -0.113
30 | CCACCCAC | -0.049
31 | GATAACAC | 0.273
32 | CTTCGTGA | 0.0399
33 | TACCAAAA | 0.165
34 | AAGTCTTC | 0.00857
35 | AGATGACG | -0.0754
36 | ATATTGCG | 0.0933
37 | CGTAGTCA | -0.185
38 | CACGGCCG | -0.15
39 | GGCTTCCC | -0.407
40 | CACAGTTA | 0.147
41 | ACATCACA | 0.0131
42 | AGGCCAGA | -0.179
43 | AAAATTCA | 0.0405
44 | GGCCGTAC | -0.149

Row | Sequence | binding signal [E-score]
45 | CACCGCGC | -0.13
46 | GACGTGTA | 0.0526
47 | ATTGAGAG | -0.127
48 | AATGCTGC | -0.0901
49 | AATAACAG | 0.127
50 | ATGTCCTG | -0.128
51 | CCCGCTAC | -0.221
52 | ACAAATGA | 0.0302
53 | GCTTATCC | -0.18
54 | GCGTATGA | 0.289
55 | GGAGGCAA | -0.0319
56 | ATAAACGC | 0.0517
57 | ATATTTGG | 0.0495
58 | ACCCCCGC | -0.314
59 | CCTACCTC | 0.0499
60 | GAAGGAGA | -0.104
61 | ATCGAGAC | -0.197
62 | GAGGCGCC | -0.384
63 | AATGGCCA | -0.0589
64 | CACTGTTC | -0.0185
65 | CACATCGC | -0.127
66 | ATGGGACA | -0.203

Row | Sequence | binding signal [E-score]
67 | GCGCCAAC | -0.241
68 | AATCCATA | 0.176
69 | CATTACCC | 0.00557
70 | AAACTTGA | 0.0856
71 | ACCTCCTC | -0.132
72 | CTAGAAAG | 0.094
73 | AGACGCGA | -0.21
74 | CGGTTTGC | 0.136
75 | TCCGCTAA | 0.119
76 | CAGTTTCA | -0.0996
77 | CTGCTCTC | -0.242
78 | GCATTGCC | -0.155
79 | ACCCAAGT | -0.0213
80 | CCATTAAG | -0.00115
81 | AGGCCCAT | -0.255
82 | CCATTAAA | -0.117
83 | AAGGGTGC | -0.212
84 | GTTCGACA | 0.0353
85 | CAGGGTGC | -0.277
86 | ATACTTTA | 0.239
